Hit rate of the full screen: of about 370,000 compounds, about 150 (0.041%) were called active. Inconclusive means that the source gave no clear call. Such entries were picked first, then a sample of the others. Calls come from the whole dose curve; as a rule, active = well fitted inhibition curve with a large enough effect; inconclusive = small, poorly fitted or top-dose-only effect; inactive = flat fitted curve, though single readings scatter. Potencies of inconclusive entries are left out as doubtful fits.
Each compound was assayed against Beta-lactamase (Escherichia coli (strain K12)) (UniProt P00811) (assay: qHTS Inhibitors of AmpC Beta-Lactamase (assay with detergent)). Conditions: AmpC hydrolysis of nitrocefin, absorbance 480 nm, 0.01% Triton; activity change, negative = inhibition: at 114 µM (top of the series).
Method in brief: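 AmpC (5.3 nM in the dispensed reagent) in 20 mM phosphate pH 7.0 with 0.01% (detergent screen) or 0.0001% Triton X-100 was preincubated with compounds for 15 min at room temperature. Nitrocefin was then added from an 800 uM solution, and hydrolysis was followed at 480 nm.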
Note: nearly all actives have a fitted effect of over 25% in size.
Potency is the fitted concentration of half-maximal effect; tags give direction and shape of the fitted curve.
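Throughout, for activity change, negative = inhibition: 0% = no-compound wells and -100% = no-enzyme wells.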

UniProt P00811, sequence (P00811 whole entry, looked up): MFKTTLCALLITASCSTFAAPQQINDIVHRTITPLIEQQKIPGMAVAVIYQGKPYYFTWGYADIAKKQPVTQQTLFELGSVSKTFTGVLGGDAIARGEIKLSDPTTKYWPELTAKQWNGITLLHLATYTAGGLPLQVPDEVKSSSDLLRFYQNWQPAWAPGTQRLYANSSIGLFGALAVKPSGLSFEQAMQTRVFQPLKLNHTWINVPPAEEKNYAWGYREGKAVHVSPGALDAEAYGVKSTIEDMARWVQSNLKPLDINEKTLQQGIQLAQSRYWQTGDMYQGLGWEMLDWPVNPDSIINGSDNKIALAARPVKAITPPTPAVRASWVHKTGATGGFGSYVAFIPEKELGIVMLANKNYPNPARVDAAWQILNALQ

| Structure (SMILES) | Potency | activity change, negative = inhibition |
| --- | --- | --- |
| O=C(CSc1ccc2ccccc2n1)N1CCC(c2noc3ccc(F)cc23)CC1 | inconclusive [inhibitor, full curve, poor fit] |  |
| O=c1cc(O)c2ccc(O)cc2o1 |  | inactive: -7.25% |
| O=[N+]([O-])c1ccc2c(c1)C(O)n1nc(-c3ccc(Cl)cc3Cl)nc1S2 (centres undefined) | inconclusive [inhibitor, single point] |  |
| Cc1cccc(COCC(Cc2ccccc2)N2CCN(C(=O)c3cccc(Cl)c3)CCC2=O)c1 (centres undefined) | inconclusive [inhibitor, partial curve] |  |
| c1ccc2c(-c3nn[nH]n3)cccc2c1 | inconclusive [inhibitor, full curve, poor fit] |  |
| COc1ccc(Nc2cc(C)nc(N)n2)cc1 | inconclusive [inhibitor, full curve, poor fit] |  |
| COc1ccc(CN2CCNC(=O)C2CC(=O)N(C)C2CCOCC2)c(F)c1 (centres undefined) | inconclusive [inhibitor, single point] |  |
| CC(C)(C)OC(=O)N/N=C/c1cccc([N+](=O)[O-])c1 |  | inactive: 2.01% |
| CCOc1ccc(C(=O)Nc2nnc(SCC(=O)NCC3CCCO3)s2)cc1 (centres undefined) | inconclusive [inhibitor, single point] |  |
| CCCc1cc(=O)oc2c3c(cc(OCC(=O)NCCN4CCOCC4)c12)OC(C)(C)CC3 | inconclusive [inhibitor, single point] |  |
| COc1ccc(CNC(=O)CC(C)CC2=NS(=O)(=O)c3ccccc3N2)cc1 (centres undefined) | inconclusive [inhibitor, full curve, poor fit] |  |
| C=C(C)CNC(=S)Nc1cccc2cnccc12 | inconclusive [inhibitor, full curve] |  |
| COC(=O)c1ccccc1NC(=O)C1CC=CCC1C(=O)O (centres undefined) | inconclusive [inhibitor, full curve, poor fit] |  |
| COc1ccc(NC(=O)CCC(=O)NCCO)cc1 |  | inactive: -1.73% |
| Cc1cccc(Nc2nnc(SCc3cn4ccsc4n3)s2)c1 |  | inactive: -17.7% |
| O=C(COC(=O)c1ccc2c(c1)OCCO2)Nc1cc(S(=O)(=O)N2CCOCC2)ccc1Cl | inconclusive [inhibitor, full curve, poor fit] |  |
| Cc1nnc(SC(=O)N2c3ccccc3Sc3ccccc32)s1 |  | inactive: -0.57% |
| Cc1cccc(Nc2c(-c3ccc(O)cc3)nc3ncccn23)c1 | inconclusive [inhibitor, full curve, poor fit] |  |
| C/C(=N\Nc1nncc2ccccc12)c1ccc(C(C)(C)C)cc1 |  | inactive: 4.97% |
| COc1cccc(C(=O)NC2CC(C)(C)Cc3c2cnn3-c2cccc(F)c2)c1OC (centres undefined) | inconclusive [inhibitor, full curve, poor fit] |  |
| CC(C)(C)OC(=O)N1CCC[C@H]1c1nnc(SCc2ccccc2Cl)o1 |  | inactive: -7.48% |
| CN(CCOC(=O)CN1C(=O)c2ccccc2C1=O)C1=NS(=O)(=O)c2ccccc21 | inconclusive [inhibitor, full curve, poor fit] |  |
| Cc1nc(CNS(=O)(=O)c2ccc3c(c2)CCCC3)cs1 | inconclusive [inhibitor, full curve, poor fit] |  |

| Structure (SMILES) | Potency | activity change, negative = inhibition |
| --- | --- | --- |
| COc1ccc(/C=C/C(=O)NCC(=O)N=Nc2c(O)[nH]c3ccc([N+](=O)[O-])cc23)cc1 | inconclusive [inhibitor, full curve, poor fit] |  |
| O=C(Nc1ccccc1C(=O)NCc1ccccc1)c1ccco1 | inconclusive [inhibitor, full curve] |  |
| O=C(Cc1csc(N2CCOCC2)n1)N/N=C/c1ccc(O)c(O)c1O |  | inactive: -14.1% |
| COc1ccc(CNC(=O)C(NC(C)=O)C(=O)Nc2ccc(OC)cc2)cc1 (centres undefined) | inconclusive [inhibitor, full curve, poor fit] |  |
| COc1ccccc1N1CCN(C(c2ccc(F)cc2)c2nnnn2C(C)C)CC1 (centres undefined) | inconclusive [inhibitor, full curve] |  |
| CC(C)(O)C#Cc1ccc(CN2CCN(CCc3ccccc3)C(CCO)C2)s1 (centres undefined) |  | inactive: 3.15% |
| CC1CCc2nc(NC(=O)C3COc4ccccc4O3)sc2C1 (centres undefined) | inconclusive [inhibitor, full curve] |  |
| COc1ccc(-n2nc3c(=O)[nH][nH]c3cc2=O)cc1 |  | inactive: 3.37% |
| COc1ccccc1N1CCN(S(=O)(=O)c2cccs2)CC1 |  | inactive: -5.04% |
| O=C(NCCc1ccncc1)C(F)(F)F | inconclusive [inhibitor, full curve, poor fit] |  |
| COc1ccc2oc(=O)c(-c3cn4ccc(C)cc4n3)cc2c1 |  | inactive: 1.21% |
| COc1ccc(C2C(C(C)=O)=C(O)C(=O)N2c2ccc(C)cc2)cc1 (centres undefined) |  | inactive: 1.48% |
| COc1cc(OC)c(NC(=O)Cn2cccc2)cc1Cl | inconclusive [inhibitor, single point] |  |
| CON/C=N/C(=S)Nc1ncc(C(F)(F)F)cc1Cl |  | inactive: 10.2% |
| O=C(O)CC1=C(Nc2ccccc2)C(=O)N(c2ccccc2)C1c1ccc(F)cc1 (centres undefined) |  | inactive: -1.22% |
| Cc1cccc(C)c1NC(=O)C(NC(=O)c1ccccn1)c1ccccc1[N+](=O)[O-] (centres undefined) | inconclusive [inhibitor, partial curve] |  |
| S=c1[nH]c(-c2ccccc2)cn1/N=C/c1ccncc1 |  | inactive: 3.85% |
| COc1ccccc1NC(=O)C(Sc1ccccc1)c1ccccc1 (centres undefined) | inconclusive [inhibitor, partial curve] |  |
| COc1cccc(CC(=O)OCC(=O)Nc2c(C)nn(-c3ccccc3)c2C)c1 | inconclusive [inhibitor, partial curve, poor fit] |  |
| O=C(N[C@@H](Cc1c[nH]c2ccccc12)C(=O)NC1CC1)c1ccccc1Cl | inconclusive [inhibitor, full curve, poor fit] |  |
| CS(=O)(=O)Nc1cccc2cccnc12 | inconclusive [inhibitor, partial curve] |  |
| COCc1c(C(N)=O)nnn1-c1nonc1N | inconclusive [inhibitor, full curve, poor fit] |  |
| Cc1nnc(NC(=O)CSc2nnc(Cc3cccn3C)n2-c2ccccc2)s1 | inconclusive [inhibitor, full curve, poor fit] |  |

| Structure (SMILES) | Potency | activity change, negative = inhibition |
| --- | --- | --- |
| O=C(/C(=N\Nc1ccc(Br)cc1)Sc1nnnn1-c1ccccc1)c1ccccc1 | inconclusive [inhibitor, partial curve, poor fit] |  |
| CCn1c(CNc2ccc(C)cc2)nnc1SCC(N)=O | inconclusive [inhibitor, partial curve] |  |
| CCOC(=O)C(=CN=C(N)Nc1nc2ccccc2o1)C(=O)OCC |  | inactive: 8.13% |
| COCC(COS(N)(=O)=O)C(C)C (centres undefined) | inconclusive [inhibitor, full curve, poor fit] |  |
| COCCn1c(SCC(=O)Nc2cc(C)cc(C)c2)nc2ccccc2c1=O | inconclusive [inhibitor, full curve, poor fit] |  |
| CCOC(=O)c1sc2nccc(N(C)C)c2c1N=CNOCc1ccccc1 |  | inactive: 1.44% |
| Cc1ccc(C)c(-n2nnnc2SCC(=O)Nc2cccc(-c3nnc4n3CCCCC4)c2)c1 | inconclusive [inhibitor, full curve, poor fit] |  |
| COc1ccc(CN2CCN(Cc3ccc(Br)cc3)CC2)c(OC)c1OC | inconclusive [inhibitor, full curve, poor fit] |  |
| CCOc1cc(/C=N/NC(=O)c2cc3c(ccc4ccccc43)o2)ccc1O | inconclusive [inhibitor, full curve, poor fit] |  |
| O=C(CSc1nc(-c2cccs2)cc(C(F)(F)F)n1)Nc1cc(OCC(F)(F)C(F)F)cc([N+](=O)[O-])c1 |  | inactive: -1.56% |
| OCCNc1nc(Nc2cccc(O)c2)nc2ccccc12 |  | inactive: 0.65% |
| COc1ccc(CNC(=O)CN2C(=O)COc3ccccc32)c(OC)c1 |  | inactive: 3.5% |
| CCOC(=O)c1c(NC(=O)CN2CCCc3ccccc32)sc(C)c1CC | inconclusive [inhibitor, partial curve] |  |
| CCOC(=O)c1c(C)[nH]c(C(=O)OCC(=O)Nc2cccnc2Cl)c1C | inconclusive [inhibitor, full curve, poor fit] |  |
| Cn1c(CNC(=O)c2ccco2)nnc1SCC(=O)N1c2ccccc2Sc2ccccc21 | inconclusive [inhibitor, full curve, poor fit] |  |
| Cc1ccc(C2=NC(C)(C)N=C2SCC(=O)Nc2ccc(Cl)cc2)cc1 | inconclusive [inhibitor, partial curve] |  |
| COc1ccc(/C=C/c2nnc(NC(=O)CC(C)C)s2)cc1 |  | inactive: -0.336% |
| O=C(NC1CCCCC1)c1cc(N2C(=O)CCC2=O)ccc1Cl | inconclusive [inhibitor, full curve, poor fit] |  |
| CN(C)c1ccc(/C=N/n2c(-c3cccnc3)n[nH]c2=S)cc1 | inconclusive [inhibitor, full curve, poor fit] |  |
| COc1ccc(C(=O)Nc2cccc3c2CCCC3)cc1OC | inconclusive [inhibitor, full curve, poor fit] |  |
| CSc1nnc(NC(=O)CCc2ccccc2)s1 | inconclusive [inhibitor, full curve, poor fit] |  |
| CC1(C)CC(=O)C(/C=N/n2c(C(F)(F)F)nc3ccccc3c2=O)=C(O)C1 | inconclusive [inhibitor, full curve] |  |
| Nc1ccc(-c2nc3cc(N)ccc3o2)cc1 | inconclusive [inhibitor, full curve, poor fit] |  |
